The text below walks through data of the RNAGym collection of RNA variant scans (doi:10.7554/elife.90254).

To fix the notation:
B1: LINE1-mini (parent)
chain: GGCAGAGCUCAACACAGCGUGGCAAAGUGGCUGUGGCUAGACUGCC

Read counts are not given, so values of variants with three or more changes are uncertain.

In the data set the parent is B1. In words: self-cleavage, relative activity (ratio to wild type); higher = more cleavage; in vitro, sequencing; the parent is a self-cleaving ribozyme.
For the variant C13U G17A A26C G29U, the self-cleavage was determined as 0.15.

As for C13G A25G C31A G40A, the self-cleavage amounted to 0.12.

Consider C13G G27A C31G G36U, for which the self-cleavage turned out to be 0.05.

Consider C13G A26U C46A, for which the self-cleavage came out at 0.06.

As for C13G A25U G40A, the self-cleavage is 0.03.

As to C13U C31G G36U C46A, the self-cleavage was 0.23.

In the case of C13G G29U C37U C45A, the self-cleavage worked out at 0.14.

C13U C15U A16C U20G G27U G44C: the self-cleavage turned out to be 0.02.

As to C13U A25C C42A, the self-cleavage worked out at 0.04.

Consider C13G G21U G29C, for which the self-cleavage is 0.1.

C13U C15U A16U G33U A39C: the self-cleavage was 0.01.

Regarding C13G C18U G36U C37A, the self-cleavage turned out to be 0.1.

As to C13G C18A G22C U34G U38A C46A, the self-cleavage came out at 0.04.

As for C13U C15U G27U, the self-cleavage was 0.55.

Consider C13G U32A C37G G40U, for which the self-cleavage amounted to 0.01.

Turning to C13G A25C U28A G35C, the self-cleavage worked out at 0.5.

Regarding C13U C18U U32G, the self-cleavage worked out at 0.02.

With C13G G27C C37U, the self-cleavage is 0.06.

Consider C13U A16U G30A U43A C45G, for which the self-cleavage was 0.08.

With C13G G22U U28C, the self-cleavage is 0.26.

Consider C13G U32G C42A, for which the self-cleavage was found to be 0.03.

In the case of C13U C23U C42U C46A, the self-cleavage amounted to 0.01.

As for C13U C18A G30A C37G G40U C45U, the self-cleavage turned out to be 0.19.

In the case of C13U C18U C45A, the self-cleavage amounted to 0.04.

For the variant C13U A16C C18G G27A G29U, the self-cleavage was 0.15.

As for C13U A14C A25U, the self-cleavage stood at 0.

Turning to C13U C18A U38G G40A C45A, the self-cleavage stood at 0.

For C13G G19C C31U, the self-cleavage turned out to be 0.01.

With C13G C15A U28A, the self-cleavage is 0.17.

In the case of C13U A16G G17C G40A, the self-cleavage was 0.21.

Consider C13G U20G A41C G44C, for which the self-cleavage is 0.05.

As for C13U C37G G44U, the self-cleavage was 0.06.

On to C13G G36C C45U, for which the self-cleavage was found to be 0.06.

Turning to C13U G17A G36U, the self-cleavage worked out at 0.03.

In the case of C13U C37A G44A, the self-cleavage turned out to be 0.02.

For C13A U34C C42G, the self-cleavage came to 0.04.

Regarding C13U C23A G27C, the self-cleavage was 0.22.

Turning to C13U A14C G17U, the self-cleavage was 0.02.

For C13U C15A A26U, the self-cleavage turned out to be 0.2.

In the case of C13U A16C G19A G21U, the self-cleavage came to 0.02.

C13G G17C G21A G29C A39G: the self-cleavage stood at 0.11.

C13U C37A U43A: the self-cleavage amounted to 0.06.

With C13G C15A C23A G33U, the self-cleavage was 0.03.

In the case of C13A U34C U38A G40U C42U C45U, the self-cleavage amounted to 0.06.

Consider C13G U34G C45U, for which the self-cleavage was found to be 0.01.

C13U C15G C18U C23U: the self-cleavage worked out at 0.04.

As to C13G U20C A26U C45A, the self-cleavage came out at 0.09.

As to C13G G40U U43A, the self-cleavage is 0.01.

For C13U G17A G30U, the self-cleavage is 0.03.

For C13U C18U U20C A25U, the self-cleavage is 0.4.

For the variant C13U C23A A24G G33C G35A A39C, the self-cleavage was 0.01.

As for C13G G19A G33U, the self-cleavage amounted to 0.09.

For the variant C13G A14C A25U, the self-cleavage came to 0.04.

C13G G30A G36A: the self-cleavage was determined as 0.22.

C13U C15A G19A G22U G36A: the self-cleavage amounted to 0.07.

With C13U A26G U32C, the self-cleavage worked out at 0.09.

C13U C18A C46A: the self-cleavage was determined as 0.07.

With C13G G21U A24G, the self-cleavage turned out to be 0.08.

On to C13G A16C A25U, for which the self-cleavage was 0.04.

For C13G G17A A41U, the self-cleavage came to 0.02.

Turning to C13G G17U C18G G29U C37U C45U, the self-cleavage stood at 0.01.

For the variant C13G G19C G22A, the self-cleavage stood at 0.09.

Turning to C13U C15U G19U G21C C37A, the self-cleavage is 0.04.

As for C13G A16U C42G, the self-cleavage was 0.01.

As to C13U C15A C46G, the self-cleavage is 0.07.

On to C13U G17A A25C G40C, for which the self-cleavage is 0.04.

With C13U C18U G33A C45U, the self-cleavage stood at 0.04.

In the case of C13G G21U U34C, the self-cleavage worked out at 0.02.

As for C13G G17C A26U, the self-cleavage stood at 0.17.

Turning to C13U A41G C42U, the self-cleavage is 0.01.

Regarding C13U C15G G44C, the self-cleavage turned out to be 0.02.

On to C13G C15U G29U, for which the self-cleavage stood at 0.18.

For C13G C18G A39G U43A C45U, the self-cleavage was 0.04.

With C13G G30A U34C G35A, the self-cleavage is 0.06.

Regarding C13U C15U G29U A39C, the self-cleavage was determined as 0.25.

C13G G36U U43A: the self-cleavage is 0.09.

As to C13A U43A C45A, the self-cleavage came out at 0.15.

For the variant C13U C23U G29U G30A A39U, the self-cleavage came out at 0.05.

Regarding C13G G27U C45A, the self-cleavage was found to be 0.02.

Regarding C13G A26C A41C, the self-cleavage worked out at 0.

Regarding C13G G29C C31U U38G A39U C45A, the self-cleavage is 0.03.

C13U C31U C45G: the self-cleavage turned out to be 0.05.

With C13U C15U G19C G27A G29C U43C, the self-cleavage turned out to be 0.1.

C13U A25C A39C G44C: the self-cleavage came to 0.02.

Take C13G G17U G19U U28A C31A G44U: the self-cleavage was 0.

Regarding C13G A14C A25U U34C G44C, the self-cleavage stood at 0.01.

C13U A16C G29U: the self-cleavage was found to be 0.09.

With C13G A16U G21C G36C C42G, the self-cleavage was 0.02.

Take C13A U34A G40A A41G C46G: the self-cleavage turned out to be 0.01.

Consider C13U C18A C37U A41U, for which the self-cleavage was 0.09.

In the case of C13G A14U C37A, the self-cleavage was found to be 0.03.

Turning to C13U A16C C23A, the self-cleavage was determined as 0.17.

For the variant C13G A25U U34A, the self-cleavage turned out to be 0.07.

C13U C15U U34A: the self-cleavage was determined as 0.15.

As to C13G U28C C31G, the self-cleavage was 0.06.

For C13G A24G G36A G44C C46G, the self-cleavage worked out at 0.02.

Take C13G C31U U43C: the self-cleavage stood at 0.01.

Regarding C13U A16U G22C C46U, the self-cleavage was found to be 0.04.

Take C13U C15A U38G: the self-cleavage came out at 0.03.

With C13U C15A U38A, the self-cleavage stood at 0.05.

C13G G22A U34C U38G A39U: the self-cleavage was found to be 0.26.

With C13G G17A C18A G36A, the self-cleavage is 0.05.

Take C13U G17A G27C U28A U32C: the self-cleavage came to 0.02.

On to C13U A16C U28G, for which the self-cleavage stood at 0.03.

Turning to C13U C31U C42G G44A, the self-cleavage came to 0.02.

In the case of C13G U20G G22U G30A, the self-cleavage came to 0.24.

In the case of C13G C15U G36A A39C, the self-cleavage was found to be 0.08.

Consider C13G C15U C31A U32G, for which the self-cleavage worked out at 0.09.

Regarding C13G C23A A24U U34G, the self-cleavage turned out to be 0.02.

As for C13G A26G C46G, the self-cleavage was found to be 0.02.

Take C13U A26C U38A: the self-cleavage is 0.21.

With C13U C18A G33U C45A, the self-cleavage was 0.01.

C13G C18U G33A: the self-cleavage amounted to 0.02.

C13G C18U G33U: the self-cleavage is 0.

C13U A14G C18U U38A A41G: the self-cleavage turned out to be 0.03.

C13U C31G U38C: the self-cleavage was 0.02.

On to C13U C31G U38A, for which the self-cleavage amounted to 0.03.

For C13G G30C G36U C37A C42U, the self-cleavage was 0.11.

For the variant C13G G29U A41G C42A G44U, the self-cleavage stood at 0.01.

On to C13G U20C G36U C37G, for which the self-cleavage worked out at 0.03.

Take C13G U32C C45U C46U: the self-cleavage came to 0.01.

For the variant C13U C18A G30U, the self-cleavage is 0.17.

For C13G C15A G17A, the self-cleavage was 0.14.

Consider C13U C23G A41G, for which the self-cleavage stood at 0.03.

For C13G A14G G21A G40A, the self-cleavage was 0.02.

As to C13G C15U G22A, the self-cleavage turned out to be 0.07.

Turning to C13G A14G A25C G40A C45A, the self-cleavage is 0.11.

For the variant C13G G21C G33U, the self-cleavage was determined as 0.05.

With C13U A16U G17U A26U G29U U43A, the self-cleavage was 0.04.

As for C13G A14U C18A A41U, the self-cleavage was 0.09.

For C13G C15U C37G, the self-cleavage was determined as 0.19.

Turning to C13U C15G U28A G33A, the self-cleavage worked out at 0.03.

Turning to C13G U34C A39C, the self-cleavage is 0.01.

As to C13G A25U C31A, the self-cleavage stood at 0.11.

Turning to C13U C15G A24G A26C, the self-cleavage was 0.01.

Turning to C13U C15A U38C C42G, the self-cleavage stood at 0.18.

On to C13G C15A G40C, for which the self-cleavage came out at 0.18.

Take C13G C15A G40U: the self-cleavage was 0.13.

For C13G C15A G40A, the self-cleavage amounted to 0.06.

As for C13U C15A G21U, the self-cleavage was 0.06.

Consider C13G A16C C31G, for which the self-cleavage was 0.

Regarding C13U C15U C31U G40C, the self-cleavage was 0.22.

For C13U C18A G40U, the self-cleavage was determined as 0.04.

For the variant C13U A14U A24G U28A G33C, the self-cleavage turned out to be 0.

Turning to C13G G19U G35A C42G, the self-cleavage came out at 0.05.

Turning to C13G A25U C31U A41G, the self-cleavage was found to be 0.01.

As for C13G C15G G19U U20G C46A, the self-cleavage is 0.01.

On to C13G A14U A16U A24C, for which the self-cleavage was 0.03.

C13U C15U C37U G40A A41U: the self-cleavage worked out at 0.09.

Turning to C13G C37A C45G, the self-cleavage is 0.05.

Regarding C13G A14G G21C U38G, the self-cleavage amounted to 0.02.

Take C13U A25C U28C U34G: the self-cleavage amounted to 0.03.

Consider C13G C31A C42U G44A, for which the self-cleavage turned out to be 0.02.

For the variant C13U C15A A25U C31U G33A, the self-cleavage was 0.03.

With C13G C15G G29C, the self-cleavage was found to be 0.1.

On to C13G C37A G44U, for which the self-cleavage is 0.

For C13G C15G A26U G35U, the self-cleavage worked out at 0.01.

As to C13U A25U U34G, the self-cleavage was 0.02.

As to C13U C15A G21C G29C G35C C37U, the self-cleavage is 0.05.

C13U C15A G35C: the self-cleavage was found to be 0.01.

For the variant C13U A16G U28A C31G, the self-cleavage was 0.01.

For C13G C18G G44U, the self-cleavage was 0.5.

In the case of C13G U38C G40A, the self-cleavage was 0.01.

C13U A14G A16G G17A C23U G30C U32A G33C: the self-cleavage is 0.03.

As to C13U C18A C37G, the self-cleavage was determined as 0.02.

C13U A14G A16C C18U U32G: the self-cleavage is 0.02.

As to C13G A24G A25C G44U, the self-cleavage amounted to 0.03.
